{
  "source": "the supplement of paper PMC8728848",
  "binders": {"B1": {"name": "PNA (Arachis hypogaea), P02872 (protein)", "chain": "MKPFCVFLTFFLLLAASSKKVDSAETVSFNFNSFSEGNPAINFQGDVTVLSNGNIQLTNLNKVNSVGRVLYAMPVRIWSSATGNVASFLTSFSFEMKDIKDYDPADGIIFFIAPEDTQIPAGSIGGGTLGVSDTKGAGHFVGVEFDTYSNSEYNDPPTDHVGIDVNSVDSVKTVPWNSVSGAVVKVTVIYDSSTKTLSVAVTNDNGDITTIAQVVDLKAKLPERVKFGFSASGSLGGRQIHLIRSWSFTSTLITTTRRSIDNNEKKIMNMASA"}},
  "test_in_all_cases": "glycan array binding signal (z-score within array); higher = stronger binding",
  "details_in_all_cases": "glycan notation: IUPAC condensed, linker removed",
  "key": {"[1]": {"target": "Gal(b1-6)Gal", "summary_of_the_method": "(§1)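 Arrays were curated from the Consortium for Functional Glycomics database, 3228 in total, and kept only where the protein sequence was available. Binding is expressed as a within-array Z-score. This score was averaged across arrays of the same protein sequence at different concentrations or buffers and across linkers, and negative values can be read as non-binding.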"}, "[2]": {"target": "Gal(b1-6)GalNAc", "summary_of_the_method": "as §1"}, "[3]": {"target": "Gal3S(b1-3)GalNAc", "summary_of_the_method": "as §1"}, "[4]": {"target": "Gal3S(b1-3)GalNAc(b1-4)Gal3S(b1-4)Glc", "summary_of_the_method": "as §1"}, "[5]": {"target": "Gal3S(b1-3)GlcNAc", "summary_of_the_method": "as §1"}, "[6]": {"target": "Gal3S(b1-3)[Fuc(a1-4)]GlcNAc", "summary_of_the_method": "as §1"}, "[7]": {"target": "Gal3S(b1-3)[Fuc(a1-4)]GlcNAc(b1-3)Gal(b1-4)Glc", "summary_of_the_method": "as §1"}, "[8]": {"target": "Gal3S(b1-4)Glc", "summary_of_the_method": "as §1"}, "[9]": {"target": "Gal3S(b1-4)Glc6S", "summary_of_the_method": "as §1"}, "[10]": {"target": "Gal3S(b1-4)GlcNAc", "summary_of_the_method": "as §1"}, "[11]": {"target": "Gal3S(b1-4)GlcNAc(b1-3)Gal", "summary_of_the_method": "as §1"}, "[12]": {"target": "Gal3S(b1-4)GlcNAc6S", "summary_of_the_method": "as §1"}, "[13]": {"target": "Gal3S(b1-4)[Fuc(a1-3)]Glc", "summary_of_the_method": "as §1"}, "[14]": {"target": "Gal3S(b1-4)[Fuc(a1-3)]Glc6S", "summary_of_the_method": "as §1"}, "[15]": {"target": "Gal3S(b1-4)[Fuc(a1-3)]GlcNAc", "summary_of_the_method": "as §1"}, "[16]": {"target": "Gal3S(b1-4)[Fuc(a1-3)]GlcNAc6S", "summary_of_the_method": "as §1"}, "[17]": {"target": "Gal3S4S(b1-4)GlcNAc", "summary_of_the_method": "as §1"}, "[18]": {"target": "Gal3S6S(b1-4)GlcNAc", "summary_of_the_method": "as §1"}, "[19]": {"target": "Gal3S6S(b1-4)GlcNAc6S", "summary_of_the_method": "as §1"}, "[20]": {"target": "Gal4S(b1-4)GlcNAc", "summary_of_the_method": "as §1"}, "[21]": {"target": "Gal4S6S(b1-4)GlcNAc", "summary_of_the_method": "as §1"}, "[22]": {"target": "Gal6P(b1-4)GlcNAc", "summary_of_the_method": "as §1"}, "[23]": {"target": "Gal6S(b1-3)GlcNAc", "summary_of_the_method": "as §1"}, "[24]": {"target": "Gal6S(b1-3)GlcNAc6S", "summary_of_the_method": "as §1"}, "[25]": {"target": "Gal6S(b1-3)[Fuc(a1-4)]GlcNAc(b1-3)Gal(b1-4)Glc", "summary_of_the_method": "as §1"}, "[26]": {"target": "Gal6S(b1-4)Glc", "summary_of_the_method": "as §1"}, "[27]": {"target": "Gal6S(b1-4)Glc6S", "summary_of_the_method": "as §1"}, "[28]": {"target": "Gal6S(b1-4)GlcNAc", "summary_of_the_method": "as §1"}, "[29]": {"target": "Gal6S(b1-4)GlcNAc6S", "summary_of_the_method": "as §1"}, "[30]": {"target": "GalNAc(a1-3)Gal", "summary_of_the_method": "as §1"}, "[31]": {"target": "GalNAc(a1-3)Gal(b1-4)Glc", "summary_of_the_method": "as §1"}, "[32]": {"target": "GalNAc(a1-3)GalNAc", "summary_of_the_method": "as §1"}, "[33]": {"target": "GalNAc(a1-3)GalNAc(a1-3)Gal(a1-4)Gal(b1-4)GlcNAc", "summary_of_the_method": "as §1"}, "[34]": {"target": "GalNAc(a1-3)GalNAc(b1-3)Gal(a1-4)Gal(b1-4)Glc", "summary_of_the_method": "as §1"}, "[35]": {"target": "GalNAc(b1-3)Gal", "summary_of_the_method": "as §1"}, "[36]": {"target": "GalNAc(b1-3)Gal(a1-4)Gal(b1-4)GlcNAc", "summary_of_the_method": "as §1"}, "[37]": {"target": "GalNAc(b1-3)Gal(a1-4)Gal(b1-4)GlcNAc(b1-3)Gal(b1-4)Glc", "summary_of_the_method": "as §1"}, "[38]": {"target": "GalNAc(b1-3)Gal(a1-6)Gal(b1-4)Glc", "summary_of_the_method": "as §1"}},
  "note": "The list shows a part of the results.",
  "data": [
    {"binder": "B1", "values": [
      {"measurement": "glycan array binding signal (z-score)", "setting": "[1]", "value": -0.246},
      {"measurement": "glycan array binding signal (z-score)", "setting": "[2]", "value": 0},
      {"measurement": "glycan array binding signal (z-score)", "setting": "[3]", "value": -0.129},
      {"measurement": "glycan array binding signal (z-score)", "setting": "[4]", "value": -0.195},
      {"measurement": "glycan array binding signal (z-score)", "setting": "[5]", "value": -0.183},
      {"measurement": "glycan array binding signal (z-score)", "setting": "[6]", "value": -0.143},
      {"measurement": "glycan array binding signal (z-score)", "setting": "[7]", "value": -0.195},
      {"measurement": "glycan array binding signal (z-score)", "setting": "[8]", "value": -0.165},
      {"measurement": "glycan array binding signal (z-score)", "setting": "[9]", "value": -0.04},
      {"measurement": "glycan array binding signal (z-score)", "setting": "[10]", "value": -0.032},
      {"measurement": "glycan array binding signal (z-score)", "setting": "[11]", "value": -0.195},
      {"measurement": "glycan array binding signal (z-score)", "setting": "[12]", "value": -0.063},
      {"measurement": "glycan array binding signal (z-score)", "setting": "[13]", "value": -0.222},
      {"measurement": "glycan array binding signal (z-score)", "setting": "[14]", "value": -0.025},
      {"measurement": "glycan array binding signal (z-score)", "setting": "[15]", "value": -0.148},
      {"measurement": "glycan array binding signal (z-score)", "setting": "[16]", "value": 0.268},
      {"measurement": "glycan array binding signal (z-score)", "setting": "[17]", "value": -0.176},
      {"measurement": "glycan array binding signal (z-score)", "setting": "[18]", "value": -0.186},
      {"measurement": "glycan array binding signal (z-score)", "setting": "[19]", "value": -0.211},
      {"measurement": "glycan array binding signal (z-score)", "setting": "[20]", "value": -0.215},
      {"measurement": "glycan array binding signal (z-score)", "setting": "[21]", "value": -0.111},
      {"measurement": "glycan array binding signal (z-score)", "setting": "[22]", "value": -0.306},
      {"measurement": "glycan array binding signal (z-score)", "setting": "[23]", "value": -0.328},
      {"measurement": "glycan array binding signal (z-score)", "setting": "[24]", "value": -0.244},
      {"measurement": "glycan array binding signal (z-score)", "setting": "[25]", "value": -0.195},
      {"measurement": "glycan array binding signal (z-score)", "setting": "[26]", "value": -0.174},
      {"measurement": "glycan array binding signal (z-score)", "setting": "[27]", "value": -0.108},
      {"measurement": "glycan array binding signal (z-score)", "setting": "[28]", "value": -0.234},
      {"measurement": "glycan array binding signal (z-score)", "setting": "[29]", "value": -0.15},
      {"measurement": "glycan array binding signal (z-score)", "setting": "[30]", "value": -0.183},
      {"measurement": "glycan array binding signal (z-score)", "setting": "[31]", "value": -0.195},
      {"measurement": "glycan array binding signal (z-score)", "setting": "[32]", "value": -0.155},
      {"measurement": "glycan array binding signal (z-score)", "setting": "[33]", "value": -0.254},
      {"measurement": "glycan array binding signal (z-score)", "setting": "[34]", "value": -0.194},
      {"measurement": "glycan array binding signal (z-score)", "setting": "[35]", "value": -0.18},
      {"measurement": "glycan array binding signal (z-score)", "setting": "[36]", "value": -0.197},
      {"measurement": "glycan array binding signal (z-score)", "setting": "[37]", "value": -0.19},
      {"measurement": "glycan array binding signal (z-score)", "setting": "[38]", "value": -0.119}
    ]}
  ]
}
